The results in this text go back to article PMC4754773.

Protein sequences, listed by entry. Tags and fused reporters are not part of them.
UniProt P17302: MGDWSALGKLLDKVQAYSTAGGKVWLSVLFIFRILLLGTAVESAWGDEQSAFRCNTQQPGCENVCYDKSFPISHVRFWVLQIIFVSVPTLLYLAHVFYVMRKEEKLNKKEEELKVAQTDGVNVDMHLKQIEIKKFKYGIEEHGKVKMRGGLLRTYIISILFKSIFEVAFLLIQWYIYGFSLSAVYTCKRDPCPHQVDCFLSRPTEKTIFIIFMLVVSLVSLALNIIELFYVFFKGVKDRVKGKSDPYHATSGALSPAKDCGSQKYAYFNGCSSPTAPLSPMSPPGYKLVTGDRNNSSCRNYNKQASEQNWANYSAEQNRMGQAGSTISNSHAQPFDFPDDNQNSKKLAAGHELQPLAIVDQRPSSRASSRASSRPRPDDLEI
UniProt O43823: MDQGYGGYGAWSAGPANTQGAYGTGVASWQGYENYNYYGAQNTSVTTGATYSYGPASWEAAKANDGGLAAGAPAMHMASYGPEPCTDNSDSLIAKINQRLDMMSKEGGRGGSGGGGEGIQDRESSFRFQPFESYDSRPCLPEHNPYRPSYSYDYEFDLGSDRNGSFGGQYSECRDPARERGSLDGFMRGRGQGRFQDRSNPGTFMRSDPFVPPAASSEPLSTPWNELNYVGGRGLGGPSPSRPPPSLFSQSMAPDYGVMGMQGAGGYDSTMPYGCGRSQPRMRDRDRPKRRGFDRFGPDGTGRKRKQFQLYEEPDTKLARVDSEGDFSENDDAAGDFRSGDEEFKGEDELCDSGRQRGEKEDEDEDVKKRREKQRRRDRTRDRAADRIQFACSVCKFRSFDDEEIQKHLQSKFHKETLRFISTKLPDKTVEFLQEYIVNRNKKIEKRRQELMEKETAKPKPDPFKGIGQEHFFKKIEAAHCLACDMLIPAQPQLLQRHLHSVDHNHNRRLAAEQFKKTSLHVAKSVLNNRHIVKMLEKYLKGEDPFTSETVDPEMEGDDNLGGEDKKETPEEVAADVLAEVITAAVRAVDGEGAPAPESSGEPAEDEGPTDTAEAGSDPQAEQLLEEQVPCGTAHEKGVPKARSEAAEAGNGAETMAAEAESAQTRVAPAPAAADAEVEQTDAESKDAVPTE

Results are given in words; binding and its absence hold for the method and conditions named. Binding seen in cells or lysates may run through a third protein. Some results given as binding are weak or reduced against the parent protein; the word gives no strength.

Assay [1] concerns the target connexin 43 (human (endogenous in A549 and L-O2)) (UniProt P17302). Briefly: co-IP; A549 fractions Cytoplasm1 (with nuclear membrane proteins), Nucleus1 and Nucleus2; 300 ug of each precipitated with 3 ug anti-Cx43 antibody, blot with anti-AKAP95 and anti-Cx43.
Assay [2] has the same target. The experiment in a line: proximity ligation; fixed A549 cells, antibodies against Cx43 and AKAP8, Duolink PLA probes, confocal microscopy; lamin B1 marks the nuclear membrane; negative control with PBS instead of the Cx43 antibody.
The target is the same in assay [3]. Briefly: co-IP; nuclear and cytoplasmic fractions of A549 and L-O2 cells treated 24 h with L-mimosine (G1), aphidicolin (S), nocodazole (G2) or colchicine (M); precipitated with anti-Cx43 antibody, blot with anti-AKAP95.
The target is the same in assay [4]. The experiment in a line: co-IP; total protein of A549 cells (control, 20 uM H89 or 20 uM Forskolin for 24 h; lysate also with or without alkaline phosphatase at 37 C for 1 h); precipitated with anti-Cx43 antibody, protein A/G agarose, blot with anti-Cx43 and anti-AKAP95.
For assay [5] the target is unchanged. The experiment in a line: condition: only cytoplasmic fraction without nuclear membrane proteins (Cytoplasm2); co-IP; A549 fraction Cytoplasm2 (made without CEB-B solution, no nuclear membrane proteins); 300 ug precipitated with 3 ug anti-Cx43 antibody, blot with anti-AKAP95 and anti-Cx43.

For “A-kinase anchoring protein 95 (from UniProt O43823 1-692)”, the binding entry in assay [1] was “binds”; in assay [2] it was “binds”; in assay [3] it was “binds”; in assay [4] it was “binds”; in assay [5] it was “no binding”.
